According to the supplement of paper PMC11417369:
Some of the results follow.

These sequences were tested on PfHDP1 homeodomain (GST-tagged) (assay: gcPBM binding intensity (ln(normalized median fluorescence intensity)); higher = stronger DNA binding).
In short: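 Plasmodium falciparum DNA-binding domains carrying a GST tag were expressed in E. coli and applied for 1 h, at about 25 μg on average, to an Agilent 4 × 180k array. The array held primer-extended double-stranded 36-bp intergenic genomic probes together with negative controls, and binding took place in 1× PBS with 1% milk, 0.2 mg/ml BSA, 0.5% salmon testes DNA and 0.03% Triton X-100. An Alexa488 anti-GST antibody detected bound protein, and the array was scanned at 488 nm. Binding intensity is taken as the highest Masliner-normalised natural-log median intensity across replicate spots of either probe orientation.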
In the case of “TTTTTTATATTGTGATGTACAAATTTTAAAATGTAG [XGTACX_site1875]”, the “gcPBM binding intensity (ln)” value is reported as 6.3.
In the case of “ATATATATATATATAATACACACTTATGAAATGTCT [CACACA_site1827]”, the “gcPBM binding intensity (ln)” value is reported as 9.11.
For “ATATAATGGCTAAATAGTACAATATAATATTTTTTA [XGTACX_site8922]”, the “gcPBM binding intensity (ln)” value was 6.14.
“ACACATGAATATTGTAGTACGGCAATTAATATAATA [XGTACX_site4589]” was tested, and the “gcPBM binding intensity (ln)” value was 6.48.
“TGGAATAATACGCGTACACACATATAAATATTAATA [CACACA_site6211]” was tested, and the “gcPBM binding intensity (ln)” value was 6.71.
For “AGAAAGGAAAAAACCTCACACATGCTTTTAATAGTA [CACACA_site4602]”, the “gcPBM binding intensity (ln)” value was 6.04.
“CTATTCTATTTTTATTGTACATATATATAATTTGAA [XGTACX_site389]” was tested, and the “gcPBM binding intensity (ln)” value was 6.91.
“AAAAAAATATAAATACGTACATATATATATATATAT [XGTACX_site432]” was tested, and the “gcPBM binding intensity (ln)” value was 9.34.
“AAAAATTCATTTTTATGTACGTACAAATTCTTCGTT [XGTACX_site2471]” was tested, and the “gcPBM binding intensity (ln)” value was 6.32.
With “AGTAAATTATATATCTGTACATATATATATGTGTAT [XGTACX_site5519]” the “gcPBM binding intensity (ln)” value was 6.67.
For “TTTTAAAAAAATATAATACACACCAAAAATATGCAC [CACACA_site2131]”, the “gcPBM binding intensity (ln)” value was 7.15.
With “ACTATATATATAAGTGCATGTTCATTATACCTAAAG [TGCATGCA_site696]” the “gcPBM binding intensity (ln)” value was 7.49.
In the case of “CTCACAAATGAATACACACAAACATATATATTTATA [CACACA_site1620]”, the “gcPBM binding intensity (ln)” value is reported as 6.51.
With “CCCACAGACGGACACACACACATATATATATATATA [CACACA_site4351]” the “gcPBM binding intensity (ln)” value was 9.48.
For “TATTTAAATTTGTATAATGGACGAATTATATAGAAA [GTGCAC_negctrl_site650]”, the “gcPBM binding intensity (ln)” value was 6.41.
In the case of “TTGAATTATAAGAATAAACACACAAGCTTAAAAAAA [CACACA_site8318]”, the “gcPBM binding intensity (ln)” value is reported as 6.35.
For “GAATTATAAATTATAGTGCATAAAATTATGGCATAA [GTGCAC_site9938]”, the “gcPBM binding intensity (ln)” value was 8.95.
“TCAAAACATTATTCCATACACACCATACTTTTTAAT [CACACA_site2770]” was tested, and the “gcPBM binding intensity (ln)” value was 7.14.
With “CTGTAAAAAATATAAACACACATAGAAATATATAAA [CACACA_site340]” the “gcPBM binding intensity (ln)” value was 6.62.
“CCTCATAAGTTCTTATGTACGTATTGTTCACCTTTA [XGTACX_site6640]” was tested, and the “gcPBM binding intensity (ln)” value was 6.42.
With “TTTATTTGTGCATATACACACTTAAATATGTTTATT [CACACA_site7772]” the “gcPBM binding intensity (ln)” value was 9.72.
In the case of “TTTAATTTTTTTTATAGTACATAAAAAATAAAAAAA [XGTACX_site5631]”, the “gcPBM binding intensity (ln)” value is reported as 6.15.
With “TACAACCTTATAATTAGTACTTAGTTATGCTGTAAA [XGTACX_site6052]” the “gcPBM binding intensity (ln)” value was 6.28.
“ACATAAAATTGGAGCAAACACACAAGGTTGAAATTA [CACACA_site505]” was tested, and the “gcPBM binding intensity (ln)” value was 7.16.
“TTTGTTATGGTTTTCTCACACATATATATATATATA [CACACA_site4617]” was tested, and the “gcPBM binding intensity (ln)” value was 9.41.
With “CCGATATAATGGAAAACACACAAAAGATATTTATAT [CACACA_site7293]” the “gcPBM binding intensity (ln)” value was 6.56.
In the case of ATTATAATACTTTGTATGCACTAATCAATTATTAAA, the “gcPBM binding intensity (ln)” value is reported as 7.89.
In the case of “AATAACCACGGACACACACACATATATATATATATA [CACACA_site5873]”, the “gcPBM binding intensity (ln)” value is reported as 9.27.
In the case of “TTAAGAAACAAAGAAAGTACACAACATAATATAGAA [XGTACX_site477]”, the “gcPBM binding intensity (ln)” value is reported as 6.79.
“TTAATAATAAAAAGGAGTACACTAATATACTATAAA [XGTACX_site2346]” was tested, and the “gcPBM binding intensity (ln)” value was 6.35.
In the case of “AATAAAATCATCTATACACACAAAAAAAATAAGAAA [CACACA_site2101]”, the “gcPBM binding intensity (ln)” value is reported as 6.75.
“ATATAATATATATATAAACACACAAAAAAAATTATA [CACACA_site8434]” was tested, and the “gcPBM binding intensity (ln)” value was 6.92.
“TATATGGTATGTATTACACACATATCACATATATAT [CACACA_site3045]” was tested, and the “gcPBM binding intensity (ln)” value was 6.56.
With “GGAATGGTACATGATACACACACGCACATATAAATA [CACACA_site7581]” the “gcPBM binding intensity (ln)” value was 7.02.
“TGGTAAATTGAGAATCGTACATTAAAAAACATAAAA [XGTACX_site3253]” was tested, and the “gcPBM binding intensity (ln)” value was 6.61.
With “ATTTATTAAAAGAAATGTACAGAAAATGTTTGGAAT [XGTACX_site7187]” the “gcPBM binding intensity (ln)” value was 6.86.
With “AAGAAAAAAAAGATAATAATAATAATAATAAAATGA [TGCATGCA_negctrl_site398]” the “gcPBM binding intensity (ln)” value was 6.41.
With “ATTTAATATCACAATATATTTTTTACCCTTATCAGC [CACACA_negctrl_site491]” the “gcPBM binding intensity (ln)” value was 6.37.
“TTATGTTGTAAATGCACACATACAAATACATATACA [CACACA_site1368]” was tested, and the “gcPBM binding intensity (ln)” value was 10.3.
“TACAATATAAAATACACACGCACACCGAAAAAAAAA [CACACA_site5865]” was tested, and the “gcPBM binding intensity (ln)” value was 6.97.
For “TTTTCTATATAGTGTTGTACATTATTGTGTAAAAAT [XGTACX_site3223]”, the “gcPBM binding intensity (ln)” value was 6.81.
In the case of “ATATTTTATACTTGCACACAAAATATATTAAAATGG [CACACA_site5139]”, the “gcPBM binding intensity (ln)” value is reported as 9.24.
“ATAAAATTGGAGCAAACACACAAGGTTGAAATTAAC [CACACA_site506]” was tested, and the “gcPBM binding intensity (ln)” value was 7.79.
With “GACTGAACAACATAATGTACATTTATAAGTATATAT [XGTACX_site3813]” the “gcPBM binding intensity (ln)” value was 6.8.
For “AGTAGTATGGAGAAAAGTACATAGTATCTGATAACC [XGTACX_site2040]”, the “gcPBM binding intensity (ln)” value was 6.79.
With “AAAGAAAAAGAAAAAGAAAAAATAAAATAAAATAAA [CACACA_negctrl_site872]” the “gcPBM binding intensity (ln)” value was 6.05.
In the case of “TATATATTATATATATGTACTTATTCATATATATAA [XGTACX_site3860]”, the “gcPBM binding intensity (ln)” value is reported as 6.43.
CTTTAATATATTTAAGTGCAAAACTAATATGTAAAG was tested, and the “gcPBM binding intensity (ln)” value was 9.26.
In the case of “TATTTAAAAACAAAAAGTACTAATATATATTTATAC [XGTACX_site1422]”, the “gcPBM binding intensity (ln)” value is reported as 6.64.
With “AAAGAATTGTATAAAAGTACATATTTGTTTGTTTTA [XGTACX_site7380]” the “gcPBM binding intensity (ln)” value was 5.92.
In the case of “TTTTTTTCATAAATTAGGTAATGTCGCAGGGGGACA [TGCATGCA_negctrl_site556]”, the “gcPBM binding intensity (ln)” value is reported as 6.83.
“TAAAAAATAAAATACACACACATATATATATATATA [CACACA_site1323]” was tested, and the “gcPBM binding intensity (ln)” value was 9.49.
For “AAAAAAATTAAAGATTGTACTTGATTTTTCATTTTA [XGTACX_site6685]”, the “gcPBM binding intensity (ln)” value was 6.19.
With “GAGGGAAAAAATAATCGTACAAAGAAAAAAAAAAAT [XGTACX_site7361]” the “gcPBM binding intensity (ln)” value was 6.72.
“TATATTCTTTTTTTAACACACAAAAAAAATAAAATA [CACACA_site1898]” was tested, and the “gcPBM binding intensity (ln)” value was 6.35.
In the case of “AAAAAATAAAAGTGGGGTACATGTCATTATGTGCAT [XGTACX_site3753]”, the “gcPBM binding intensity (ln)” value is reported as 7.46.
In the case of CAAAATATTATCATGATGCACTTTACACTCTAAGGT, the “gcPBM binding intensity (ln)” value is reported as 7.22.
